# Assay results from article PMC10668032.
# This is one part of the list. At the low end of the ranking the order means little.
# Target: SIX1 homeodomain (reference allele) (UniProt Q15475)
# Test: universal protein binding microarray
# Details: Universal all-10-mer PBM (8x60K, AMADID 030236), 300 nM GST-tagged protein, Alexa Fluor 488 anti-GST; buffer, salt, pH and temperature not stated; high values mean tight binding; most listed sequences are background and not binding sites; double strand, one strand shown
row,Sequence,binding signal [E-score]
1,AGCAGGAC,-0.142
2,AATTAACC,-0.0197
3,AGGTCGAT,0.133
4,GTAGATAC,0.289
5,GAAATCAA,-0.36
6,CGAGCGCG,-0.128
7,ACCGCGCT,-0.218
8,AGTCGGAG,-0.171
9,ACAACTGT,-0.223
10,ACCTCCCC,0.0354
11,CAAGAAAA,0.0158
12,AAGAGATT,-0.146
13,GAATTAGC,-0.201
14,CGTGGATC,0.293
15,GGGGGTAA,0.128
16,GTTCTCGA,-0.168
17,CATCAACA,0.0129
18,GAGAGCAC,0.0376
19,CCTTGCTA,-0.0776
20,ATGCAGCG,-0.23
21,CGCCCTTC,-0.11
22,GCGCTTCA,-0.261

row,Sequence,binding signal [E-score]
1,ATCTGTCC,0.29
2,CCGCCGCG,0.101
3,TGACCTAA,-0.0497
4,GTATGGTA,0.234
5,CCGCGACG,-0.0756
6,AAGGCGGA,0.04
7,CAAAATGG,-0.149
8,GTACACGA,0.165
9,AACCTAAT,-0.00121
10,GAAAGTCC,-0.267
11,GATCCGGC,0.393
12,AGCGCGAG,-0.147
13,CAAGAAGA,0.0904
14,CGATTTCA,-0.105
15,AGCTTGGG,-0.116
16,CACTTGCG,-0.0273
17,ACAGGAAT,-0.277
18,CCTGCTTC,-0.0441
19,CGGAAACC,-0.0611
20,ATCGTCGA,0.0943
21,CGTGGCCA,-0.237
22,CTCCCATC,0.051

row,Sequence,binding signal [E-score]
1,CGCTTAAA,-0.164
2,AGTCGACA,-0.00172
3,CTGGCGTA,0.0849
4,ACGCCTCC,-0.1
5,TCAATAAA,-0.105
6,ATACCAGG,0.377
7,ATCCTCAG,0.258
8,GCTGATAA,0.118
9,CTCCCTCC,-0.0323
10,ATGTTAGA,-0.0524
11,CAAAAAAC,-0.218
12,GCCGGAAA,-0.0388
13,ACGTAACG,-0.15
14,GACAACGA,-0.131
15,CATGGAGG,0.0136
16,GTACGTCA,-0.059
17,ATGTGACG,-0.0542
18,AGGATAGG,0.306
19,CGGATGAA,0.0999
20,AGGCTGTG,-0.157
21,ACAAACCC,-0.0123
22,GTCGTATA,0.186

row,Sequence,binding signal [E-score]
1,AACATTAA,-0.156
2,CCTACTCG,-0.0646
3,CAACCCGG,0.112
4,AGGCACGG,-0.183
5,ACGAAGTA,0.109
6,ACTTATCA,0.0176
7,CCGCGCCC,-0.00901
8,GTGACCAC,-0.0486
9,GTATCCAA,0.421
10,GCTGTCCA,-0.202
11,AGCCCGTA,-0.097
12,AAGAACAT,-0.163
13,CGGGTCTC,0.187
14,GGGATCCA,0.375
15,AATCACGA,-0.0602
16,AGTAAAGG,-0.197
17,CCATGATC,0.293
18,CATGGCAG,0.0147
19,AATTAGCG,-0.231
20,CCTCCATA,-0.00502
